Assay results published in PubChem BioAssay (NCI).
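How tested: cells in 96-well plates exposed to compound for 48 hours at five concentrations. GI50: concentration for 50% inhibition of growth. The concentration for full growth arrest is given as TGI.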 Peptide text beside a SMILES is read from it.

The compounds below were run on NCI-H322M lung (assay: NCI tumour cell line growth inhibition, 48 h).

**Q.** With `CCOC(=O)c1nc2c(Cl)c3ncccc3cc2[nH]c1=O` as the compound, how does the TGI read?
**A.** > 100 µM

**Q.** With `CCOC(=O)C1N(S(=O)(=O)c2ccc(C)cc2)CCC12C(c1ccc(OC)cc1)NC1CCCCC12` (stereo not drawn) as the compound, how does the TGI read?
**A.** > 100 µM

**Q.** For `CC1=NC(=Cc2ccc(O)cc2)C(=O)N1n1c(-c2ccccc2)nc2ccccc2c1=O`, which TGI is on record?
**A.** > 100 µM

**Q.** How did the TGI turn out when `CCOC(=O)CCc1c(C)c2c(OC(C)=O)cc(OC(C)=O)cc2oc1=O` was run?
**A.** > 100 µM

**Q.** `CCOC(=O)CC1c2ccc(O)cc2OC(=O)C1c1ccc([N+](=O)[O-])cc1` (stereo not drawn) was tested. Which TGI did it give?
**A.** > 100 µM

**Q.** How did the TGI turn out when `COC(COC(=O)N1CCN(C=O)CC1)C1=C(N2CC2)C(=O)C(C)=C(N2CC2)C1=O` (stereo not drawn) was run?
**A.** 5.41 µM

**Q.** How did the TGI turn out when `COn1cc(C=O)c2ccccc21` was run?
**A.** > 100 µM

**Q.** How did the TGI turn out when `COC1=C(Br)[C@H](O)[C@@]2(C=C1Br)CC(C(=O)NCCCCCN=C(N)N)=NO2` was run?
**A.** > 10 µM

**Q.** With `COc1cc2c(cc1OC)C13CCN4CC5=CCOC6CC(=O)N2C1C6C5CC43O` (stereo not drawn) as the compound, how does the TGI read?
**A.** > 100 µM

**Q.** With `O=[N+]([O-])c1ccc(-n2nnc(C3=NCCCN3)c2-c2ccc(Cl)cc2)cc1` as the compound, how does the TGI read?
**A.** > 100 µM

**Q.** Which TGI does the source give for `CN(C)C(=O)OCOC(=O)N(C)C` here?
**A.** > 100 µM

**Q.** Which results are given for `Nc1ccncc1/C=C1/C(=O)Nc2ccccc21`?
**A.** GI50: 29.7 µM; TGI: > 100 µM

**Q.** Which TGI does the source give for `CCC(C)C(NC(=O)C(CCCCN)NC(=O)C(NC(=O)C(CCC(N)=O)NC(=O)C(N)CCCNC(=N)N)C(C)CC)C(=O)NC(Cc1c[nH]c2ccccc12)C(=O)NC(Cc1ccccc1)C(=O)NC(CCC(N)=O)C(=O)NC(CC(N)=O)C(=O)NC(CCCNC(=N)N)C(=O)NC(CCCNC(=N)N)C(=O)NC(CCSC)C(=O)NC(CCCCN)C(=O)NC(Cc1c[nH]c2ccccc12)C(=O)NC(CCCCN)C(=O)NC(CCCCN)C(=O)N1CCCC1C(=O)NC(C)C(=O)NC(CCCCN)C(=O)NC(CCCNC(=N)N)C(=O)NC(CCCCN)C(=O)NC(CC(C)C)C(=O)NC(Cc1ccccc1)C(=O)NCC(=O)O` (stereo not drawn) (H-RQIKIWFQNRRMKWKKPAKRKLFG-OH; configuration not given here) here?
**A.** > 25 µM

**Q.** What does the source list for `O=C1c2ccn(CCCCNC(CO)(CO)CO)c2C(=O)c2c1c(O)c1ccccc1c2O`?
**A.** GI50: 0.837 µM; TGI: 2.12 µM

**Q.** For `COc1cccc(OC)c1/C=C1\OC(=O)c2cccc(OC)c21`, which TGI is on record?
**A.** > 100 µM

**Q.** Which TGI does the source give for `CN=NN(C)C(=O)NC` here?
**A.** > 100 µM

**Q.** With `C=C1C(=O)O[C@H]2[C@H]1[C@@H](OC(=O)C=C(C)C)CC1=C[C@@H](C[C@@]3(C)O[C@@H]23)OC1=O` as the compound, how does the TGI read?
**A.** 26.8 µM

**Q.** With `CC(=O)Oc1ccccc1C(=O)N=C1[Se]CCCN1C(=O)c1ccccc1OC(C)=O` as the compound, how does the GI50 read?
**A.** 2.3 µM

**Q.** What about the TGI of the same compound?
**A.** 6.98 µM

**Q.** Which GI50 does the source give for `CC(=O)OCC1OC([S-])C(OC(C)=O)C(OC(C)=O)C1OC(C)=O.CC[PH+](CC)CC.CC[PH+](CC)CC.[Au].[Au]` (stereo not drawn) here?
**A.** 1.4 µM

**Q.** What about the TGI of the same compound?
**A.** 2.7 µM

**Q.** With `COc1ccc2c(c1)CCc1c-2[nH]c2ccc(OC)cc12` as the compound, how does the TGI read?
**A.** > 100 µM

**Q.** With `N#Cc1c(-c2ccccc2)[nH]c2ccccc2c1=O` as the compound, how does the TGI read?
**A.** > 100 µM

**Q.** `CCN(CC)CC(C)(C)C(=O)/C=C/c1ccc(Cl)c(Cl)c1` was tested. Which GI50 did it give?
**A.** 1.59 µM

**Q.** What about the TGI of the same compound?
**A.** 3.08 µM

**Q.** With `COC(=O)C1OC(Oc2cc(O)c3c(=O)cc(-c4ccc(O)cc4)oc3c2)C(O)C(O)C1O` (stereo not drawn) as the compound, how does the TGI read?
**A.** > 100 µM

**Q.** How did the TGI turn out when `Cc1cn2c(=O)c3ccccc3nc2s1` was run?
**A.** > 100 µM

**Q.** Which results are given for `COc1cc2cn3c4ccc(O)cc4[nH]c(=O)c3c2cc1OC`?
**A.** GI50: 0.0597 µM; TGI: 1.97 µM

**Q.** How did the TGI turn out when `OCC1OC(n2cnc3c2NC=NC[C@H]3O)C(O)C1O` (stereo partly drawn) was run?
**A.** > 450 µM

**Q.** Which GI50 does the source give for `COc1ccc(CNc2c3ccccc3nc3ccccc23)cc1OC` here?
**A.** 2.08 µM

**Q.** And the TGI?
**A.** 7.69 µM

**Q.** Which TGI does the source give for `COc1ccccc1/C=C/c1cnccn1` here?
**A.** > 10 µM

**Q.** Which results are given for `CN(C)Cc1c[nH]c2c1C(=O)c1c(c(O)c3ccccc3c1O)C2=O`?
**A.** GI50: 2.83 µM; TGI: 9.35 µM

**Q.** For `COc1cc(/C=C2\C(=O)Nc3ccc(F)cc32)cc(OC)c1OC`, which GI50 is on record?
**A.** 92.3 µM

**Q.** And the TGI?
**A.** > 100 µM

**Q.** With `Nc1nc(Cl)cc(NCCO)n1` as the compound, how does the TGI read?
**A.** > 100 µM

**Q.** What does the source list for `COc1ccc(-c2cc(-c3cccn3C)c(C#N)c(N)n2)cc1OC`?
**A.** GI50: > 100 µM; TGI: > 100 µM

**Q.** How did the TGI turn out when `CCCS(=O)(=O)Nc1ccc(Nc2c3ccccc3nc3ccccc23)c(OC)c1` was run?
**A.** 10.6 µM

**Q.** With `Clc1ccc(-c2c(C3=NCCN3)nnn2-c2ccc(Cl)cc2)cc1` as the compound, how does the TGI read?
**A.** > 100 µM

**Q.** For `C#CC(=O)Nc1cccc(Nc2nc3c(c(NCc4ccccc4)n2)CCCC3)c1`, which GI50 is on record?
**A.** 2 µM

**Q.** And the TGI?
**A.** 4 µM

**Q.** For `CCOC(=O)C1=C(Nc2cccc(OC)c2)OCC1=O`, which TGI is on record?
**A.** > 100 µM

**Q.** Which TGI does the source give for `CC(C)c1ccccc1S(=O)c1ccccc1C(C)(C)O` (stereo not drawn) here?
**A.** > 100 µM

**Q.** `CCOC(=O)C1=C(C)N(N)C(=S)NC1c1ccc(C)cc1` (stereo not drawn) was tested. Which GI50 did it give?
**A.** 5.58 µM

**Q.** What about the TGI of the same compound?
**A.** > 100 µM

**Q.** With `Cc1cc(C)cc(C(=N)c2ccccc2Cc2cccc3ccccc23)c1` as the compound, how does the TGI read?
**A.** 37.6 µM

**Q.** For `COC(=O)[C@@H](NC(=O)[C@@H](OC)[C@@H]1Cc2cc3cc(OC4CC(OC5CC(O)C(O)C(C)O5)C(O)C(C)O4)c(C)c(O)c3c(O)c2C(=O)[C@H]1OC1CC(OC2CC(OC3CC(C)(O)C(O)C(C)O3)C(O)C(C)O2)C(O)C(C)O1)C(C)C` (stereo partly drawn), which GI50 is on record?
**A.** 0.146 µM

**Q.** And the TGI?
**A.** > 32.5 µM

**Q.** Which TGI does the source give for `CC(=O)c1csc2c1C(=O)c1scc(C(C)=O)c1C2=O` here?
**A.** 2.83 µM

**Q.** What does the source list for `OCCCCC#Cc1ccccc1C#Cc1cccc(O)c1`?
**A.** GI50: 14.6 µM; TGI: 35.5 µM

**Q.** How did the TGI turn out when `CNC(=S)N/N=C(C)\C(=N/NC(=S)NC)c1ccccc1` was run?
**A.** > 100 µM

**Q.** For `CCOC(=O)c1csc(NC(=O)C(C)N2CCCCC2)n1` (stereo not drawn), which TGI is on record?
**A.** > 100 µM

**Q.** What does the source list for `O=C(CCCN1CC=C(n2c(=O)[nH]c3ccccc32)CC1)c1ccc(F)cc1`?
**A.** GI50: 71 µM; TGI: > 100 µM

**Q.** For `CC1=C(C(N)=O)C(c2ccncc2)C(C#N)=C2SCC(=O)N12` (stereo not drawn), which TGI is on record?
**A.** > 100 µM

**Q.** `CC12CCC(C(=O)OC1=O)C2(C)C` (stereo not drawn) was tested. Which TGI did it give?
**A.** > 100 µM

**Q.** Which TGI does the source give for `COC(CN(C(=O)c1ccccc1)C1CCC2(SCCS2)c2[nH]c3ccccc3c21)OC` (stereo not drawn) here?
**A.** > 100 µM
